Measured values from publication PMC9839713.
These are yes or no findings as the source states them, for the method shown. For some of these results: Binding seen in cells or lysates may run through a third protein. Some results given as binding are weak or reduced against the parent protein; the word gives no strength. For some of these results: Where a sequence is shown, tags or fusion partners need not be part of it.

By UniProt entry, the sequences of proteins in these tests, tags left out. Where a name states a change or a piece, a line headed by the entry shows the natural chain unless it says otherwise. Residues count along the entry.
UniProt Q8RY73: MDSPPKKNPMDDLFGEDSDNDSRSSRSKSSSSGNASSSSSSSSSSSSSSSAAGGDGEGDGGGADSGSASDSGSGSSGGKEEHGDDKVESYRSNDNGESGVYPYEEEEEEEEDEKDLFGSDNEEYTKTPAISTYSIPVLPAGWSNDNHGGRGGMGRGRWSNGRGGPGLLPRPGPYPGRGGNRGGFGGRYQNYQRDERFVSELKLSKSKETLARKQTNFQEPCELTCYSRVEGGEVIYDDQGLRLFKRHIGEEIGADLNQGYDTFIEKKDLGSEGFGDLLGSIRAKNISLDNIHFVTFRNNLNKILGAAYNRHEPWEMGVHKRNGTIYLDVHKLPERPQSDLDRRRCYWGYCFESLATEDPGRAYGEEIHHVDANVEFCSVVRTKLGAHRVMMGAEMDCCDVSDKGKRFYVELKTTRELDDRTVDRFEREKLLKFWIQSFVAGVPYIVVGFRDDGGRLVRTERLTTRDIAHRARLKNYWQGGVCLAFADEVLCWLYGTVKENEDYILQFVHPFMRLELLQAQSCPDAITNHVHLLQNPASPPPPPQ
BD-nDXO1 (plant-specific N-terminal extension of DXO1, 1-200 aa): residues 1-200 of Q8RY73

Assays:
[1] = molecular target: BD-DXO1 (full-length AtDXO1 fused to the DNA binding domain) (Arabidopsis thaliana) (UniProt Q8RY73); experiment: two-hybrid; pairwise: one protein as BD fusion (pGBKT7), the other as AD fusion (pGADT7) in yeast Y2H Gold; growth on -Leu -Trp -His -Ade with AbA (and X-alpha-Gal in some), 3 days at 30 °C
[2] = molecular target: BD-nDXO1 (plant-specific N-terminal extension of DXO1, 1-200 aa) (Arabidopsis thaliana) (UniProt Q8RY73); experiment: as above
[3] = molecular target: nYFP-DXO1 (Arabidopsis thaliana) (UniProt Q8RY73); experiment: split reporter; BiFC: nYFP and cYFP fusions co-transfected into WT Arabidopsis protoplasts; YFP read by confocal microscopy 8 h after transfection
[4] = molecular target: DXO1-FLAG (35S:DXO1-FLAG) (Arabidopsis thaliana) (UniProt Q8RY73); experiment: co-IP; protoplasts of 35S:DXO1-FLAG transgenic or WT plants transfected with HA fusions; lysate with or without RNase A; anti-FLAG M2 affinity gel, 2 h at 4 °C; 150 mM NaCl, 50 mM Tris-HCl pH 7.5, 10% glycerol, 0.5% Triton X-100; blots with anti-FLAG and anti-HA
[5] = molecular target: DXO1-FLAG (DXO1pro::DXO1-FLAG transgene) (Arabidopsis thaliana) (UniProt Q8RY73); experiment: co-IP; protein extracts of 12-day-old seedlings of the DXO1pro::DXO1-FLAG line and WT, with or without RNase A; anti-FLAG M2 resin; blots with anti-FLAG and anti-RNMT1 polyclonal antibodies

B1: AD-RNMT1 (AtRNMT1 fused to the activation domain) (protein, UniProt Q9LHQ7 1-370)
chain: MKRGFSDSPSSSAPPPSSRFKSNPEGDSQFLEDETTKNFARKVADHYSRRTNQTLEEREASPIIHLKKLNNWIKSVLIQLYARPDDAVLDLACGKGGDLIKWDKARIGYYVGIDIAEGSIEDCRTRYNGDADHHQRRKKFSFPSRLLCGDCFEVELDKILEEDAPFDICSCQFAMHYSWTTEARARRALANVSALLRPGGVFIGTMPDANVIIKKLREAEGLEIGNSVYWIRFGEEYSQKKFKSSSPFGIEYVFHLEDAVDCPEWIVPFNVFKSLAEEYDLELVFVKNSHEFVHEYMKKPEFVELMRRLGALGDGSNDQSTLSADEWEAAYLYLSFVLRKRGESDGARRSGRRKNGKMNLSKDDVLYIDS
- binding [1]: binds
- binding [2]: binds

B2: AD-mRNMT1 (middle region of RNMT1, 88-207 aa) (domain or fragment, UniProt Q9LHQ7 88-207)
chain: VLDLACGKGGDLIKWDKARIGYYVGIDIAEGSIEDCRTRYNGDADHHQRRKKFSFPSRLLCGDCFEVELDKILEEDAPFDICSCQFAMHYSWTTEARARRALANVSALLRPGGVFIGTMP
- binding [1]: binds
- binding [2]: binds

B3: cYFP-RNMT1 (protein, UniProt Q9LHQ7 1-370)
chain: B1 chain
- binding [3]: binds

B4: RNMT1-HA (protein, UniProt Q9LHQ7 1-370)
chain: B1 chain
- binding [4]: binds

B5: RNMT1 from the native RNMT1 gene (protein, UniProt Q9LHQ7 1-370)
chain: B1 chain
- binding [5]: binds

B6: AD-nRNMT1 (RNMT1 1-170 aa) (domain or fragment, UniProt Q9LHQ7 1-170)
chain: MKRGFSDSPSSSAPPPSSRFKSNPEGDSQFLEDETTKNFARKVADHYSRRTNQTLEEREASPIIHLKKLNNWIKSVLIQLYARPDDAVLDLACGKGGDLIKWDKARIGYYVGIDIAEGSIEDCRTRYNGDADHHQRRKKFSFPSRLLCGDCFEVELDKILEEDAPFDICS
- binding [1]: no binding

B7: AD-cRNMT1 (RNMT1 171-370 aa) (domain or fragment, UniProt Q9LHQ7 171-370)
chain: CQFAMHYSWTTEARARRALANVSALLRPGGVFIGTMPDANVIIKKLREAEGLEIGNSVYWIRFGEEYSQKKFKSSSPFGIEYVFHLEDAVDCPEWIVPFNVFKSLAEEYDLELVFVKNSHEFVHEYMKKPEFVELMRRLGALGDGSNDQSTLSADEWEAAYLYLSFVLRKRGESDGARRSGRRKNGKMNLSKDDVLYIDS
- binding [1]: no binding

B8: FCA-HA (protein, UniProt O04425 1-747)
chain: MNGPPDRVDFKPMGPHHGGSFRPMGFAYDDGFRPMGPNGGVGGEGTRSIVGARYNYPAKYPPSESPDRRRFIGKAMESDYSVRPTTPPVQQPLSGQKRGYPISDHGSFTGTDVSDRSSTVKLFVGSVPRTATEEEIRPYFEQHGNVLEVALIKDKRTGQQQGCCFVKYATSKDADRAIRALHNQITLPGGTGPVQVRYADGERERIGTLEFKLFVGSLNKQATEKEVEEIFLQFGHVEDVYLMRDEYRQSRGCGFVKYSSKETAMAAIDGLNGTYTMRGCNQPLIVRFAEPKRPKPGESREMAPPVGLGSGPRFQASGPRPTSNFGDSSGDVSHTNPWRPATSRNVGPPSNTGIRGAGSDFSPKPGQATLPSNQGGPLGGYGVPPLNPLPVPGVSSSATLQQQNRAAGQHITPLKKPLHSPQGLPLPLRPQTNFPGAQAPLQNPYAYSSQLPTSQLPPQQNISRATAPQTPLNINLRPTTVSSATVQFPPRSQQQPLQKMQHPPSELAQLLSQQTQSLQATFQSSQQAISQLQQQVQSMQQPNQNLPLSQNGRAGKQQWAGSAIPRVASTTGSTPVSYVQTAAPAVSQSVGSVKCTWTEHTSPDGFKYYYNGLTGESKWEKPEEMIVFEREQQKQQQHQEKPTIQQSQTQLQPLQQQPQQVQQQYQGQQLQQPFYSSLYPTPGASHNTQYPSLPVGQNSQFPMSGIGQNAQDYARTHIPVGAASMNDISRTQQSRQSPQELMWKNKA
- binding [4]: no binding
